Counter-ions that a name gives are not always drawn. The list shows a part of the results.
System: Schistosoma mansoni schistosomula
Assay: phenotypic hit in primary schistosomula screen (any phenotype vs DMSO control) (binary (1 = hit, 0 = no phenotype)); higher = active (phenotype induced)
Settings: 1 µM; time (d): 7

Structure (SMILES)	phenotypic hit
O=[N+]([O-])c1ccc(O)c([N+](=O)[O-])c1 [2,4-dinitrophenol]	inactive: 0
NCCCNCCSP(=O)(O)O [amifostine]	inactive: 0
c1ccc2c(c1)[nH]c1cnccc12 [norharman]	inactive: 0
CCC(C)c1cnc(CC(C)C)c(=O)n1O (stereo not given) [aspergillic acid]	inactive: 0
COc1cc2occc2c2oc(=O)ccc12 [isobergaptene]	inactive: 0
NCC[C@H](O)C(=O)N[C@@H]1C[C@H](N)[C@@H](O[C@H]2O[C@H](CN)[C@@H](O)[C@H](O)[C@H]2N)[C@H](O[C@@H]2O[C@H](CO)C(O)[C@H]2O)[C@H]1O (stereo not given in full) [butirosin sulfate]	inactive: 0
CCCCCCCCC(=O)NCc1ccc(O)c(OC)c1 [N-Vanillylnonanamide]	inactive: 0
CC(C)c1ccc2c(c1O)CC[C@H]1C3=C(CC[C@]21C)C(=O)OC3 [triptophenolide]	inactive: 0
C=C1[C@@H](C)[C@H]2[C@H](Cc3ccccc3)NC(=O)[C@]23OC(=O)/C=C/C(=O)CCC[C@@H](C)C/C=C/[C@H]3[C@@H]1O [cytochalasin a]	inactive: 0
COc1ccc(/C=C/c2cc(O)cc(O)c2)cc1 [resveratrol 4'-methyl ether]	inactive: 0
CC(=O)[O][Hg][c]1ccccc1 [phenylmercuric acetate]	active: 1
O=c1[nH]c2ccccc2n1C1CCN(CCCC(c2ccc(F)cc2)c2ccc(F)cc2)CC1 [Pimozide]	inactive: 0
C/C=C(\C)C(=O)O[C@H]1C[C@@H](OC(C)=O)[C@@]2(C(=O)OC)CO[C@H]3[C@@H](O)[C@@](C)([C@]45O[C@@]4(C)[C@H]4C[C@@H]5O[C@@H]5OC=C[C@@]54O)[C@H]4[C@]1(CO[C@]4(O)C(=O)OC)[C@@H]32 [azadirachtin]	inactive: 0
Cc1cc2c(C(C)C)c(O)c(O)c(C=O)c2c(O)c1-c1c(C)cc2c(C(C)C)c(O)c(O)c(C=O)c2c1O [gossypol]	inactive: 0
CC(=O)Nc1cc([As](=O)(O)O)ccc1O [acetarsol]	inactive: 0
COc1cccc2c1cc([N+](=O)[O-])c1c(C(=O)O)cc3c(c12)OCO3 [aristolochic acid]	inactive: 0
c1cc2c(cc1[C@H]1OC[C@H]3[C@@H]1CO[C@H]3c1ccc3c(c1)OCO3)OCO2 [asarinin (-)]	inactive: 0
C=C1[C@@H]([C@@]2(C)[C@@H](OC(C)=O)CC(=O)O[C@](C)(COC(C)=O)[C@@H]2C(=O)OC)[C@@H](OC=O)[C@H](OC(=O)[C@H](O)[C@H](C)CC)[C@@]2(C)[C@H](c3ccoc3)CC(=O)[C@]12O [prieurianin]	inactive: 0
COc1c(CC=C(C)C)c2c(c3oc(=O)c(-c4ccc(O)cc4)c(O)c13)C=CC(C)(C)O2 [scandenin]	inactive: 0
COc1cc2c(cc1OC)[C@@H]1C(=O)c3ccc(OC)c(CC=C(C)C)c3O[C@@H]1CO2 [rotenonic acid, methyl ether]	inactive: 0

Structure (SMILES)	phenotypic hit
CN(C)C(=O)Oc1ccc[n+](C)c1 [Pyridostigmine bromide]	inactive: 0
CNC(=O)Oc1cccc2c1OC(C)(C)C2 [carbofuran]	inactive: 0
COC(C)(C)CCC[C@H](C)C/C=C/C(C)=C/C(=O)OC(C)C [methoprene (s)]	inactive: 0
C[C@@]12C(=O)OC(=O)[C@]1(C)[C@H]1CC[C@@H]2O1 [cantharidin]	inactive: 0
CCCC(C)(COC(N)=O)COC(=O)NC(C)C (stereo not given) [Carisoprodol]	inactive: 0
Oc1ccc(Cl)cc1Cc1cc(Cl)ccc1O [dichlorophene]	active: 1
Cl[C@H]1[C@H](Cl)[C@@H](Cl)[C@@H](Cl)[C@H](Cl)[C@H]1Cl [lindane]	inactive: 0
CC12CCC3C(CCC4(O)CC(O)CCC34/C=N/NC(N)=O)C1(O)CCC2C1=CC(=O)OC1 (stereo not given) [strophanthidin semicarbazide]	inactive: 0
CC(=O)O[C@@H]1C[C@H]2C(C)(C)C(=O)C=C[C@]2(C)[C@H]2CC[C@]3(C)C(=CC(=O)O[C@H]3c3ccoc3)[C@@]21C [deoxygedunin]	inactive: 0
N[C@@H]1C[C@H]1c1ccccc1.N[C@H]1C[C@@H]1c1ccccc1 [tranylcypromine sulfate]	inactive: 0
C[N+]1(C)CCCC(OC(=O)C(O)(c2ccccc2)c2ccccc2)C1 (stereo not given) [mepenzolate bromide]	inactive: 0
COc1cc(OC)c(OC)cc1C=O [asarylaldehyde]	inactive: 0
CCOC(=O)NC1=C(N2CC2)C(=O)C(NC(=O)OCC)=C(N2CC2)C1=O [diaziquone]	inactive: 0
COc1cc2c(cc1O)C[C@H]1c3c(cc(O)c(OC)c3-2)CCN1C [boldine]	inactive: 0
C[C@H]1CC[C@]2(NC1)O[C@H]1C[C@H]3[C@@H]4CC[C@H]5C[C@@H](O[C@@H]6O[C@H](CO)[C@H](O[C@@H]7O[C@H](CO)[C@@H](O)[C@H](O[C@@H]8OC[C@@H](O)[C@H](O)[C@H]8O)[C@H]7O[C@@H]7O[C@H](CO)[C@@H](O)[C@H](O)[C@H]7O)[C@H](O)[C@H]6O)CC[C@]5(C)[C@H]4CC[C@]3(C)[C@H]1[C@@H]2C [tomatine]	active: 1
CC1(C)C(=O)C=C[C@@]2(C)C1=C(O)C(=O)[C@]1(C)[C@@H]2CC[C@@]2(C)[C@H](c3ccoc3)C[C@H]3O[C@]321 [cedrelone]	inactive: 0
O=C1CCO1 [beta-propiolactone]	inactive: 0
Cc1c(O)c(O)cc2c1CC=C1[C@@]2(C)CC[C@@]2(C)[C@@H]3C[C@](C)(C(=O)O)CC[C@]3(C)CC[C@]12C [dihydrocelastrol]	inactive: 0
O=C1C(Cl)=C(Cl)C(=O)C(Cl)=C1Cl [chloranil]	inactive: 0
C[C@@H]1CC[C@]2(NC1)O[C@H]1C[C@H]3[C@@H]4CC=C5C[C@@H](O)CC[C@]5(C)[C@H]4CC[C@]3(C)[C@H]1[C@@H]2C [solasodine]	inactive: 0
